Over roughly 2,300 sequences, “median log2 fold change of GCK-ALFA target abundance (FLAG IP / Myc IP barcode read proportion)” has its median near 0.095; the lowest 2% begin near -0.47. This is one part of the list.
B1: LC3A_102_144 (protein)
chain: SPEEEVKKLKEEFLKKAEEIAKKLEEKDPERAKKTLELLKKAINAIAEDAIDEIRHGFTDIEAYDIYLEAKEELEKLGDEEGLKLLEEAEKKFEEIVEKA
B2: LC3A_28_805 (protein)
chain: SATRANADAALAEARAALAAGEPVHVTITVPADATQAEIDYVAGVIREMARAAAAAGASSLSVVVDVDQNQTAVTTISNTEDELRAEGLPVNVVIALEEP
B3: LC3A_free_0_2105 (protein)
chain: TTVVGEVVAITEKALSEEDLAKVKAEMEEIAKELKEKYGMEVKVTVEEVDGRTVFTLEFSKEGMSVEEMIEIVDEVADRLEKKFKELGHDVTVYTSVYEE
B4: LC3A_28_1016 (protein)
chain: SALDKQLEAIEKEARAAIEAGEDVVLTLKITGDMTLEEVREAMARLKEIVLEGAKKGKVDLVIDLDADVTQEKRDIVFEAADEIEAAAPNVNVIIALEER
B5: LC3A_28_1099 (protein)
chain: SALEANLAAALAETRAAAAAGEEALIEITVTDEATEADLARLIATIEEIAEIAADLPALTVVIDLDGENAEAKANILSKAADELEKKYPNLTIIIALDED
B6: LC3A_free_39_2180 (protein)
chain: SEEELEEVKEEILKLAEEEGEEAKKIAEELLELVEGNLELAKLILEGLKKVKEAGGDVKAALKALLEEVKRMKKEGKSLEELKERIKEILEDHLNLIPLD
B7: LC3A_28_1259 (protein)
chain: SALDENIAAALAEVRAAVARGEEAVVTITVPAGATEEEIDRVIATMREIAELAAGLPRVTIIIDVERGVAQEHIDRLADEGERLEAEYPNLTVIIALEEE
B8: LC3A_3_1685 (protein)
chain: MEELVEEVLKIAKENGYSEETLKALKELLELLKERGYEKAIEKLKEELKRLKDASSELWKDMFEDLKHLLLTEDLSEEEVVKKIEEEARVIENDLEIEEL
B9: LC3A_28_706 (protein)
chain: MKLEESIKKAIEEAKKAAEEGKEAVITITIPSDATEEDIEKVIEALYEIAEITKDLKRTTIVIDIEGGVKQEHINKLIDAGEEIEKKYPNVTVIFALDEE
B10: LC3A_free_8_2550 (protein)
chain: ASAALTTAVTAKLDELSEELSKKAKELGLSQLDINELELEIGEAIIDIIELQDKSPEEILKKLKEDLEEIKELAKELGEELYALAKKLSEEILAAAEAMM
B11: LC3A_28_1066 (protein)
chain: NPLAAQLAAALAEARAAAAAGEEVTVTLTLDANSTDEDLDRVLATMEEIAEIAKDMPALSIIVDVDNPNKEEDTKRIAEKGEELEKRYPNVTVIIALSEE
B12: LC3A_free_8_2455 (protein)
chain: MNQKIVDKLTEMLEEMEEKLVKKLKELGKSRLDILELELEIGSAIADIISKVDESPEEILKTLKEDLERIIKLAEEIHPEVAKLAKEMSKKILEEAEKLI
B13: LC3A_3_1676 (protein)
chain: LEELVEEALETIDETIEDEEVRELFRRAVELLAARGLEEEIRAVAELVKEMKDLPTEKQLERAEALLATVEAATGSPEAAAAAVSSEISVLRNELEIEEL
B14: LC3A_28_915 (protein)
chain: SALDKSTEAAIKKIEEDAAKGEPAVVRLEVTEEDPAAAEAATRAALERLAEVMKKYKNVTVIVDAPERVLDAVTAVADEVEAELLKENPSNHIIVAAEEP
B15: LC3A_28_1220 (protein)
chain: AAVEAQIAAARAQMEAAKAKGEEALITVKVGGGTTVEDAKRLMDALEEIVAEAADLPSISIIIDVDGGVSQEVIDTIAEKGEAIEKKYPNVTVIIALDEE
B16: LC3A_3_1700 (protein)
chain: MEEILKEAEEILEKQGRSEETKEAALAAVKALLEKGYEEAAKTLLEKLKEAKDLSDEILKAFYEDVLRYVETEDVDEETAIKFINEEYEIAKNEQEIEEL
B17: LC3A_62_2051 (protein)
chain: MYRAVIDIDFLFETEEKAKKAAEEIKEAAEEIKEEYPEVEVEVEVEIEGTYLKVTVTLEAPNKETLEAAVNDLIDRFDEIAEKYGAKAVLISVDIEEVEP
B18: LC3A_132_292 (protein)
chain: QEELAKEILEKIKKLVEEAKKNIEDEEKVKKYLEEIEKLLREAAERLSPELLAEVMDKAVELLDELSRKFLEAGKEELAMEADGLRIEAASLSLRARESL
B19: LC3A_28_834 (protein)
chain: SLAEKQIEEAKKQLDEAKETKEDVLVEIEITSTMTPEEAEEIMDAVEEEISKLDKSIKVDIVVLFKEPASQEVIDVVTDKGEEIEEKFPNVNFIVALPEP
B20: LC3A_free_26_2165 (protein)
chain: DEFLDIAALDEAIENLEKAIKLAKENPNVSKELIELLERALKHLKKGTAESFKKAIEDLEKAIKLVKENKEIPEEDKEKLLKLLEEALKKAKENLKILEE
B21: LC3A_free_39_2244 (protein)
chain: SAEELEKAKEEILALAAEEGEEALELAKKILEILEGNVEATKKLLELLKQIKADGGDILEVLKEAVEVAEELEKEGKSQEEINEAIVETVQDHLNLLPLD
B22: LC3A_28_1329 (protein)
chain: SHIEEELAAAEAAAEEALARGEEALIEVKISGSTTLEEAEELMERLEEIVRRYAPEIKVSVVIDLSSSVSQEVIDLIAERAEEIEERYPNVTVIIALDEE
B23: LC3A_28_1148 (protein)
chain: SAMVEEAKAQIDADAEKDKNEKEIYLNVTFKKGITVEEAEEIMDHVEEVVEKNKDKEKIYIVIDFEEPISQEVLDLILKKADEIEKKFPNVDVIIALHED
B24: LC3A_147_467 (protein)
chain: YRTIVDIDILVKDAEEEVIERIKAIAEELKEKGYKVELEIESEKLPDGSTYIRARITIETETEEEAIEAANLVIDRLDELEEELKDEILGSLISVEIEKK
B25: LC3A_28_707 (protein)
chain: NALEASIAAALAEAKAAAAAGESTVIEIDIPGDATQEDIDKVIKALEEIAEILKDLPSTSIIINVDGKVKQEHIDKLADAAEEIEEKYPNVTVIIALDEN
B26: LC3A_free_8_2472 (protein)
chain: KIKETVKKITEKLDELAEKTRKKMKELGVSELDINELELEIGAAISDIISNSDKPIEELKKIAEEDLKEILELAKELGEEIAKLVEETAKEIEEILEKAL
B27: LC3A_free_37_2174 (protein)
chain: KAVIVVDIVPREELEAARKRAAARTEANRDDGDIRVREIVVPEDLEEAERVTREQLRAVLAEIRAEDPNAEVDVIIALDDLDTANVVADTADELLAEERA
B28: LC3A_28_957 (protein)
chain: SELEKELEKAIAEAKEAAKKGVPAVITINVPGTADEEDIEKVIEALEEIAEILKDVEGAAIIINVDGKVAQEHIDKLAEKAEEIEKKYPKITVIIALDEE
B29: LC3A_132_285 (protein)
chain: GEAARDAAVAKVKELLDEAEKNIDDEEKVRKLLEELKKYLEEVEKTESPEVVRAASETAADGLEKLSEKLEEKGKEELALEADSLAIEAESRALRAEEAL

The binders below were run against MAP1LC3A, Q9H492 (assay: median log2 fold change of GCK-ALFA target abundance (FLAG IP / Myc IP barcode read proportion) (log2 ratio); each designed protein is fused to an ALFA-tag nanobody in HEK293 cells to bring the named protein to FLAG-tagged glucokinase (GCK); Myc marks an untargeted standard; higher = target protein stabilised (more abundant)). Settings: target protein: 3xFLAG-MCP-GCK-ALFA reporter; HEK293 landing pad (RPLP).
Summary of the method: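 An ALFA-nanobody-fused binder library was recombined into HEK293 landing-pad cells and induced with 2 μg mL^−1 doxycycline. Cells were transfected with a plasmid expressing a FLAG-tagged target and a Myc-tagged standard. After 48 h, lysates underwent anti-FLAG and anti-Myc immunoprecipitation, and circular RNA barcodes were reverse transcribed, amplified and sequenced. Target abundance is the per-binder median log2 ratio of FLAG to Myc barcode read proportions. Barcodes needed ≥10^−7 proportion in both replicates, binders ≥3 barcodes per replicate, and a 10^−6 pseudocount was added; the two replicates were pooled.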

Binder	median log2 fold change
B1	0.111
B2	0.162
B3	-0.0932
B4	0.0929
B5	-0.0422
B6	0.392
B7	0.177
B8	0.31
B9	0.0438
B10	0.196
B11	0.133
B12	-0.109
B13	0.218
B14	0.278
B15	0.0342
B16	0.13
B17	-0.135
B18	0.283
B19	0.241
B20	-0.0261
B21	0.315
B22	0.117
B23	0.0494
B24	-0.47
B25	0.185
B26	0.168
B27	0.142
B28	0.162
B29	0.315
